Data from PubChem BioAssay AID360 (National Center for Advancing Translational Sciences (NCATS), 2006).
Among all 48,000 compounds or so, about 550 (1.1%) were called active. Roughly 4% stayed inconclusive and do not appear here. No stated cut-off is given here; in the data, active means potency below about 15 µM; inconclusive means mostly about 16 µM to 33 µM; inactive means weaker than that. Some of the results follow.

Each compound was assayed against Lysosomal acid glucosylceramidase (Homo sapiens) (UniProt P04062) (assay: Glucocerebrosidase). Conditions: purified enzyme, resorufin glucoside fluorescence (screen aimed at inhibitors), 20 min.
Sequence of UniProt P04062 (P04062 whole entry, looked up): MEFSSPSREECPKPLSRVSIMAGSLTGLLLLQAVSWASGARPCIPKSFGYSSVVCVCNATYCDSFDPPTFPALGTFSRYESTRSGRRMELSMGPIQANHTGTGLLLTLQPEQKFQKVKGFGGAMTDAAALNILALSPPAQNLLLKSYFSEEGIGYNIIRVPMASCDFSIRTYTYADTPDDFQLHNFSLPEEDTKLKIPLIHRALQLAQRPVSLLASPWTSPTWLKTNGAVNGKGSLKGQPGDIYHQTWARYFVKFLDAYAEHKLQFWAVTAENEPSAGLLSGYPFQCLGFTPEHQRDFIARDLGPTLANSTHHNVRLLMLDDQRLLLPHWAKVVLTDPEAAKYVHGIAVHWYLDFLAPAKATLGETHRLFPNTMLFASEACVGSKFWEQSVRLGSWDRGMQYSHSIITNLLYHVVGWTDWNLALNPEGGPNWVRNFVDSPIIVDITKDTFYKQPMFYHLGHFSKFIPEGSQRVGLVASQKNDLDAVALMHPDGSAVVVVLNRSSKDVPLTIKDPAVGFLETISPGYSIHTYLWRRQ
How it was run: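 Compounds titrated against 0.2 nM normal enzyme, 30 uM resorufin beta-D-glucopyranoside substrate, citrate/phosphate buffer with taurocholate and tween-20, pH 5.9. Reaction ran 20 min at room temperature; fluorescence (Ex 548/Em 600) gave AC50.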
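Further: the screen sought inhibitors.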
Potency means the concentration at half of the fitted maximal effect.

Potency, inactive:
C=C(C)CC1Nc2ccccc2NC1CC(=C)C (stereo unspecified) > 76.9 µM
COc1ccc(CC(=O)Nc2cc(Cl)ccc2O)cc1 > 76.9 µM
O=C(c1cccc(Cl)c1)N1CCN(Cc2ccccc2F)CC1 > 76.9 µM
O=C1c2cccnc2C(=O)N1c1ccccc1-c1ccccc1 > 76.9 µM
CCCCc1ccc(NC(=O)N[C@H](C(=O)O)C(C)C)cc1 > 76.9 µM
O=C(CCc1ccccc1)Nc1ccc(NC(=O)C2CC2)nc1 > 76.9 µM
CS(=O)(=O)N(CC(=O)O)c1ccc(Oc2ccccc2)cc1 > 76.9 µM
O=C(CCS(=O)(=O)c1ccc(Br)cc1)NCc1cccs1 > 76.9 µM
COc1cc(-c2cccs2)cc(=O)c2c(C)oc(C)c12 > 76.9 µM
Oc1oc(-c2ccco2)nc1C=Nc1ccccc1 > 76.9 µM
Cc1nc(SCC(=O)CC(=O)OC(C)C)c(C#N)c(C)c1C
CCOC(=O)c1[nH]nc2c1C(=O)N(Cc1ccccc1)C2=O > 76.9 µM
Cc1cc(C(F)F)n2nc(C(=O)Nc3c(F)cc(F)cc3Br)nc2n1 > 76.9 µM
CCn1nc(C(=O)OCc2c(C)noc2C)c2ccccc2c1=O > 76.9 µM
O=S(=O)(NC1CC1)c1ccc(S(=O)(=O)N2CCCc3ccccc32)cc1
CC1CCCCN1C(=O)CSc1nnc(-c2ccc(Cl)s2)o1 (stereo unspecified) > 76.9 µM
COCCOCC(O)CN1CCN(c2ccccc2)CC1 (stereo unspecified) > 76.9 µM
Cc1c(C(=O)NCCCN2CCCC2=O)oc2ccc(S(=O)(=O)N3CCOCC3)cc12 > 76.9 µM
Cc1ccccc1-c1nnc(SCC(=O)NC2CCCCC2)o1 > 76.9 µM
Cc1cccn2cc(CNc3ccccc3)nc12 > 76.9 µM
Cc1ccc(CN(Cc2cc3cc(C)ccc3[nH]c2=O)C(=O)N2CCOCC2)cc1 > 76.9 µM
COc1ccccc1NC(=O)c1cc(S(=O)(=O)N2CCOCC2)ccc1Cl > 76.9 µM
O=C(COC(=O)CN1C(=O)C2CC=CCC2C1=O)Nc1cc(C(F)(F)F)ccc1N1CCOCC1 (stereo unspecified) > 76.9 µM
O=C(CSc1nc2ccccc2c(=O)n1-c1ccc(Cl)cc1)c1ccco1 > 76.9 µM
O=C(C1CCCO1)N(c1cccc(Cl)c1)C1C=CS(=O)(=O)C1 (stereo unspecified) > 76.9 µM
O=C(CSc1nnnn1C1CCCC1)NCc1ccc2c(c1)OCO2 > 76.9 µM
